# Assay results: the supplement of paper PMC8728848
# This is one part of the list.
# B1: PX14375C-bth-509-28-509 (Bacteroides thetaiotaomicron) (protein)
# chain: RSPQGQFTEDDNPNALVNGKIYNVYTMMRSFDITAGTPAIAIHYLRSEDSEKGSIPSDGSDVAEMYDDFLYTPTNGLLGSYWGKNYAIIYQCNDILDAIAEKETAGQTETEDIINKGEASFFRAYCYFNLVRAFGEVPLVTYKINDASEANIPKTTADKIYEQIDTDLKTAEESLPETWSTEYTGRLTWGAARSLHARTYMMRSDWDNMYKASTDVINKGLYNLKTPYNEIFTDDGENSGGSIFELQCTATAALPQSDVIGSQFCEVQGVRGAGQWDLGWGWHMATQLMADAYETGDPRKNATLLYFRKTDDEPITPENTNEPYGESPISPAMGAYFNKKAYTDPALRKEYTNKGFWVNIRLIRYSDVVLMAAEAANEKNIPGEAVDYLEMVRARARGTNTNILPKITTNDQGELREAIRHERRVELGLEPDRFYDLVRWGIASEVLHAAGKVNYQDKNALLPLPQSEIDKSKGVLVQNPDY
# Columns and labels:
# Assay in all cases: glycan array binding signal (z-score within array); higher = stronger binding
# Conditions in all cases: glycan notation: IUPAC condensed, linker removed
# [1] = target: Neu5Ac(a2-6)Gal(b1-3)GlcNAc(b1-3)[Gal(b1-4)GlcNAc(b1-6)]Gal(b1-4)Glc
# In short: (§1)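 The Consortium for Functional Glycomics database supplied 3228 glycan arrays, of which those lacking an available protein sequence were dropped. The binding signal, a within-array Z-score, was averaged across arrays of the same protein sequence and across linkers. Negative scores can be read as non-binding.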
# [2] = target: Neu5Ac(a2-6)Gal(b1-4)Glc
# In short: as §1
# [3] = target: Neu5Ac(a2-6)Gal(b1-4)GlcNAc
# In short: as §1
# [4] = target: Neu5Ac(a2-6)Gal(b1-4)GlcNAc(b1-2)Man
# In short: as §1
# [5] = target: Neu5Ac(a2-6)Gal(b1-4)GlcNAc(b1-2)Man(a1-3)Man(b1-4)GlcNAc(b1-4)GlcNAc
# In short: as §1
# [6] = target: Neu5Ac(a2-6)Gal(b1-4)GlcNAc(b1-2)Man(a1-3)[Gal(b1-4)GlcNAc(b1-2)Man(a1-6)]Man(b1-4)GlcNAc(b1-4)GlcNAc
# In short: as §1
# [7] = target: Neu5Ac(a2-6)Gal(b1-4)GlcNAc(b1-2)Man(a1-3)[GlcNAc(b1-2)Man(a1-6)]Man(b1-4)GlcNAc(b1-4)GlcNAc
# In short: as §1
# [8] = target: Neu5Ac(a2-6)Gal(b1-4)GlcNAc(b1-2)Man(a1-3)[GlcNAc(b1-4)][Neu5Ac(a2-6)Gal(b1-4)GlcNAc(b1-2)Man(a1-6)]Man(b1-4)GlcNAc(b1-4)GlcNAc
# In short: as §1
# [9] = target: Neu5Ac(a2-6)Gal(b1-4)GlcNAc(b1-2)Man(a1-3)[Man(a1-6)]Man(b1-4)GlcNAc(b1-4)GlcNAc
# In short: as §1
# [10] = target: Neu5Ac(a2-6)Gal(b1-4)GlcNAc(b1-2)Man(a1-3)[Neu5Ac(a2-3)Gal(b1-4)GlcNAc(b1-2)Man(a1-6)]Man(b1-4)GlcNAc(b1-4)GlcNAc
# In short: as §1
# [11] = target: Neu5Ac(a2-6)Gal(b1-4)GlcNAc(b1-2)Man(a1-3)[Neu5Ac(a2-6)Gal(b1-4)GlcNAc(b1-2)Man(a1-6)]Man(b1-4)GlcNAc(b1-4)GlcNAc
# In short: as §1
# [12] = target: Neu5Ac(a2-6)Gal(b1-4)GlcNAc(b1-2)Man(a1-3)[Neu5Ac(a2-6)Gal(b1-4)GlcNAc(b1-2)Man(a1-6)]Man(b1-4)GlcNAc(b1-4)[Fuc(a1-6)]GlcNAc
# In short: as §1
# [13] = target: Neu5Ac(a2-6)Gal(b1-4)GlcNAc(b1-2)Man(a1-6)Man(b1-4)GlcNAc(b1-4)GlcNAc
# In short: as §1
# [14] = target: Neu5Ac(a2-6)Gal(b1-4)GlcNAc(b1-2)Man(a1-6)[Gal(b1-4)GlcNAc(b1-2)Man(a1-3)]Man(b1-4)GlcNAc(b1-4)GlcNAc
# In short: as §1
# [15] = target: Neu5Ac(a2-6)Gal(b1-4)GlcNAc(b1-2)Man(a1-6)[GlcNAc(b1-2)Man(a1-3)]Man(b1-4)GlcNAc(b1-4)GlcNAc
# In short: as §1
# [16] = target: Neu5Ac(a2-6)Gal(b1-4)GlcNAc(b1-2)Man(a1-6)[Man(a1-3)]Man(b1-4)GlcNAc(b1-4)GlcNAc
# In short: as §1
# [17] = target: Neu5Ac(a2-6)Gal(b1-4)GlcNAc(b1-2)[Neu5Ac(a2-6)Gal(b1-4)GlcNAc(b1-4)]Man(a1-3)[GlcNAc(b1-4)][Neu5Ac(a2-6)Gal(b1-4)GlcNAc(b1-2)[Neu5Ac(a2-6)Gal(b1-4)GlcNAc(b1-6)]Man(a1-6)]Man(b1-4)GlcNAc(b1-4)GlcNAc
# In short: as §1
# [18] = target: Neu5Ac(a2-6)Gal(b1-4)GlcNAc(b1-2)[Neu5Ac(a2-6)Gal(b1-4)GlcNAc(b1-4)]Man(a1-3)[GlcNAc(b1-4)][Neu5Ac(a2-6)Gal(b1-4)GlcNAc(b1-4)Man(a1-6)]Man(b1-4)GlcNAc(b1-4)GlcNAc
# In short: as §1
# [19] = target: Neu5Ac(a2-6)Gal(b1-4)GlcNAc(b1-2)[Neu5Ac(a2-6)Gal(b1-4)GlcNAc(b1-6)]Man(a1-6)[Neu5Ac(a2-6)Gal(b1-4)GlcNAc(b1-2)Man(a1-3)][GlcNAc(b1-4)]Man(b1-4)GlcNAc(b1-4)GlcNAc
# In short: as §1
# [20] = target: Neu5Ac(a2-6)Gal(b1-4)GlcNAc(b1-3)Gal(b1-3)GlcNAc
# In short: as §1
# [21] = target: Neu5Ac(a2-6)Gal(b1-4)GlcNAc(b1-3)Gal(b1-4)GlcNAc
# In short: as §1
# [22] = target: Neu5Ac(a2-6)Gal(b1-4)GlcNAc(b1-3)Gal(b1-4)GlcNAc(b1-2)Man(a1-3)[Neu5Ac(a2-6)Gal(b1-4)GlcNAc(b1-3)Gal(b1-4)GlcNAc(b1-2)Man(a1-6)]GalNAc
# In short: as §1
# [23] = target: Neu5Ac(a2-6)Gal(b1-4)GlcNAc(b1-3)Gal(b1-4)GlcNAc(b1-3)Gal(b1-4)GlcNAc
# In short: as §1
# [24] = target: Neu5Ac(a2-6)Gal(b1-4)GlcNAc(b1-3)Gal(b1-4)GlcNAc(b1-3)Gal(b1-4)GlcNAc(b1-2)Man(a1-3)[Neu5Ac(a2-6)Gal(b1-4)GlcNAc(b1-3)Gal(b1-4)GlcNAc(b1-3)Gal(b1-4)GlcNAc(b1-2)Man(a1-6)]GalNAc
# In short: as §1
# [25] = target: Neu5Ac(a2-6)Gal(b1-4)GlcNAc(b1-3)Gal(b1-4)GlcNAc(b1-3)GalNAc
# In short: as §1
# [26] = target: Neu5Ac(a2-6)Gal(b1-4)GlcNAc(b1-3)Gal(b1-4)GlcNAc(b1-3)[Neu5Ac(a2-6)Gal(b1-4)GlcNAc(b1-3)Gal(b1-4)GlcNAc(b1-6)]GalNAc
# In short: as §1
# [27] = target: Neu5Ac(a2-6)Gal(b1-4)GlcNAc(b1-3)Gal(b1-4)GlcNAc(b1-6)[Gal(b1-3)]GalNAc
# In short: as §1
# [28] = target: Neu5Ac(a2-6)Gal(b1-4)GlcNAc(b1-3)Gal(b1-4)[Fuc(a1-3)]GlcNAc(b1-3)Gal(b1-4)[Fuc(a1-3)]GlcNAc
# In short: as §1
# [29] = target: Neu5Ac(a2-6)Gal(b1-4)GlcNAc(b1-3)GalNAc
# In short: as §1
# [30] = target: Neu5Ac(a2-6)Gal(b1-4)GlcNAc(b1-3)[Neu5Ac(a2-6)Gal(b1-4)GlcNAc(b1-6)]GalNAc
# In short: as §1
# [31] = target: Neu5Ac(a2-6)Gal(b1-4)GlcNAc(b1-6)GalNAc
# In short: as §1
# [32] = target: Neu5Ac(a2-6)Gal(b1-4)GlcNAc(b1-6)[Gal(b1-3)GlcNAc(b1-3)]Gal(b1-4)Glc
# In short: as §1
# [33] = target: Neu5Ac(a2-6)Gal(b1-4)GlcNAc(b1-6)[Gal(b1-3)]GalNAc
# In short: as §1
# [34] = target: Neu5Ac(a2-6)Gal(b1-4)GlcNAc6S
# In short: as §1
# [35] = target: Neu5Ac(a2-6)GalNAc
# In short: as §1
# [36] = target: Neu5Ac(a2-6)GalNAc(b1-4)GlcNAc
# In short: as §1
# [37] = target: Neu5Ac(a2-6)GalNAc(b1-4)GlcNAc6S
# In short: as §1
# [38] = target: Neu5Ac(a2-6)GlcNAc(b1-4)GlcNAc
# In short: as §1
binder,measurement,setting,value
B1,glycan array binding signal (z-score),[1],-0.383
same,glycan array binding signal (z-score),[2],-0.175
same,glycan array binding signal (z-score),[3],-0.163
same,glycan array binding signal (z-score),[4],-0.274
same,glycan array binding signal (z-score),[5],-0.115
same,glycan array binding signal (z-score),[6],-0.22
same,glycan array binding signal (z-score),[7],-0.055
same,glycan array binding signal (z-score),[8],-0.163
same,glycan array binding signal (z-score),[9],-0.251
same,glycan array binding signal (z-score),[10],-0.241
same,glycan array binding signal (z-score),[11],-0.245
same,glycan array binding signal (z-score),[12],-0.145
same,glycan array binding signal (z-score),[13],0.109
same,glycan array binding signal (z-score),[14],-0.442
same,glycan array binding signal (z-score),[15],-0.185
same,glycan array binding signal (z-score),[16],-0.42
same,glycan array binding signal (z-score),[17],0.105
same,glycan array binding signal (z-score),[18],-0.331
same,glycan array binding signal (z-score),[19],-0.21
same,glycan array binding signal (z-score),[20],-0.357
same,glycan array binding signal (z-score),[21],-0.057
same,glycan array binding signal (z-score),[22],0.333
same,glycan array binding signal (z-score),[23],-0.449
same,glycan array binding signal (z-score),[24],0.19
same,glycan array binding signal (z-score),[25],-0.226
same,glycan array binding signal (z-score),[26],-0.341
same,glycan array binding signal (z-score),[27],-0.11
same,glycan array binding signal (z-score),[28],-0.086
same,glycan array binding signal (z-score),[29],0.155
same,glycan array binding signal (z-score),[30],-0.322
same,glycan array binding signal (z-score),[31],-0.184
same,glycan array binding signal (z-score),[32],-0.117
same,glycan array binding signal (z-score),[33],-0.168
same,glycan array binding signal (z-score),[34],-0.292
same,glycan array binding signal (z-score),[35],-0.377
same,glycan array binding signal (z-score),[36],-0.389
same,glycan array binding signal (z-score),[37],-0.322
same,glycan array binding signal (z-score),[38],-0.42
